In all, about 310,000 compounds went through this assay and about 2,200 (0.71%) showed an effect of 50% or more. The effect is printed as a negative number. The list shows a part of the results.
The compounds below were run against human ether-à-go-go-related gene (hERG) potassium channel (human, UniProt Q12809) (assay: primary screen, population patch clamp on CHO cells stably expressing hERG).
Chain of human ether-à-go-go-related gene (hERG) potassium channel (Q12809 whole entry, looked up): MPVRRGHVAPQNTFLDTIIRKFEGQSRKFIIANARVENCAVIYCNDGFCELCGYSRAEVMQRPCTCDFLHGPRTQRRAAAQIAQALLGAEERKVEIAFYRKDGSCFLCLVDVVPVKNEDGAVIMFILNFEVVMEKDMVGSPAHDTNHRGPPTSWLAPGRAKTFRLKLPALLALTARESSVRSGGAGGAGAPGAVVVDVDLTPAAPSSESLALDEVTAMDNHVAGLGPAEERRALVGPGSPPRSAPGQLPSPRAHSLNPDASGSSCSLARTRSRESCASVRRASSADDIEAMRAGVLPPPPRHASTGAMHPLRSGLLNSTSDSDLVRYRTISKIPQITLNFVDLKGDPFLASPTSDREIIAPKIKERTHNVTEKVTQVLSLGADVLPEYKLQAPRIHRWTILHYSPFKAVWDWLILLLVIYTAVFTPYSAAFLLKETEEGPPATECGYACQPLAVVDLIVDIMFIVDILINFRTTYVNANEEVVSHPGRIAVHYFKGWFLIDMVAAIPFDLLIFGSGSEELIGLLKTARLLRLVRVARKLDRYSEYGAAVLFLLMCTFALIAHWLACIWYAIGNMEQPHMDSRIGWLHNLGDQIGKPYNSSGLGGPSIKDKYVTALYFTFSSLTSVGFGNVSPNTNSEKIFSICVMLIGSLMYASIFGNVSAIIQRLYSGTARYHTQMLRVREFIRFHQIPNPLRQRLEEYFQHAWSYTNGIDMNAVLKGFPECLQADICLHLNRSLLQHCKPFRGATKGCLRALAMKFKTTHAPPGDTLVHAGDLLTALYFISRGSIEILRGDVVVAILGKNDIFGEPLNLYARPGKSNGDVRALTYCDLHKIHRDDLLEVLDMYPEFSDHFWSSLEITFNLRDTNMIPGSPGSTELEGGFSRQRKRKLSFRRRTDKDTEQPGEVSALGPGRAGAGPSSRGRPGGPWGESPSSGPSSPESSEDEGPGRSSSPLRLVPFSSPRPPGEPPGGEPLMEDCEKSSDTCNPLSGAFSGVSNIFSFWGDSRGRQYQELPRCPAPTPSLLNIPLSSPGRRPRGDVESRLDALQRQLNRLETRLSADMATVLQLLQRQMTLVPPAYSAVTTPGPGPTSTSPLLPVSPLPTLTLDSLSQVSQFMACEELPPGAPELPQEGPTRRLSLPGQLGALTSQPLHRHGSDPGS

| Compound | hERG current change (%, negative = inhibition) at 1uM [%] |
| --- | --- |
| Cc1nn(Cc2ccccc2)c2c1C(c1ccco1)C(C#N)=C(N)O2 (centres unmarked) | 6.11 |
| Cc1nc(N2CCN(c3ccccn3)CC2)c2c(C)c(C(=O)Nc3c(F)cc(F)cc3Br)sc2n1 | 11.9 |
| CN1CCCN(S(=O)(=O)c2ccccc2)CC1.Cl | -2.23 |
| COc1ccc(CNC(=O)C2(CC3CC(c4ccccc4)=NO3)CCN(C(=O)Cc3ccc(F)cc3)CC2)cc1 (centres unmarked) | 12.8 |
| CN(Cc1c(C(=O)N2CCc3ccccc3C2)nc2ccc(Cl)cn12)C(C1CC1)C1CC1 | 12.9 |
| Cn1cccc1/C=C1\CCc2ccccc2C1=O | 8.49 |
| O=S(=O)(c1ccc2ccccc2c1)n1cccn1 | 7.75 |
| COc1ccccc1NS(=O)(=O)c1cc(NC(=O)c2sccc2C)ccc1N1CCCC1 | 15.8 |
| Cc1cccc(C(=O)N[C@H](C(=O)OCc2cc(=O)n3c(n2)sc2ccccc23)C(C)C)c1 | 12.5 |
| CC1CN(c2ccccc2)CCN1C(=O)c1cc(COc2c(F)cccc2F)on1 (centres unmarked) | 7.17 |
| COc1ccc(NC(=O)c2ccc(NCC3CCCO3)c([N+](=O)[O-])c2)cc1 (centres unmarked) | 2.95 |
| CCOc1cc(C(=O)N(C)CC(=O)Nc2cccc3ccccc23)ccc1OC | 6.42 |
| COc1ccccc1S(=O)(=O)CC(O)COc1ccccc1Cl (centres unmarked) | 9.79 |
| COc1ccc(COc2cc(-c3cccc(OC)c3)nc3ccc(NC(=O)c4ccc(OC)cc4)cc23)cc1 | 15.9 |
| CCc1c(C)c2c(C)nn(-c3ccccc3)c2[nH]c1=O | -2.21 |
| COc1cccc(NC(=O)CN(C)CC(=O)NCc2ccco2)c1 | 11.7 |
| CCN1CCCC1CNC(=O)c1ccc(Sc2ccc(F)cc2)c([N+](=O)[O-])c1 (centres unmarked) | -19.8 |
| CC(C)(C)OC(=O)N1CCC[C@H]1c1nnc(SCc2cccc(Cl)c2)o1 | 16.1 |
| Cc1ccsc1CNn1cnnc1SCc1ccc(Cl)cc1 | 16.7 |

| Compound | hERG current change (%, negative = inhibition) at 1uM [%] |
| --- | --- |
| O=C(COc1ccc2ccccc2c1)N1CCN(C(=O)c2cccs2)CC1 | -14.7 |
| COC(=O)CNC(=O)c1ccc(=O)oc1 | 11 |
| COc1cc(OC)cc(-c2cc3nc4c(c(N5CCN(c6ncccn6)CC5)n3n2)CCCC4)c1 | 12.6 |
| O=[N+]([O-])c1ccc(-c2cn3c(n2)CCC3)cc1 | 7.15 |
| Cc1c(C)n2c(SCC(=O)N3CCCCC3)nnc2[nH]c1=O | 8.95 |
| CN(C)C(=O)COc1ccc(C(=O)/C=C/c2cccnc2)cc1 | 15.1 |
| O=C(NC1CCN(C(=S)Nc2ccc(Cl)cc2)CC1)C1CCCCC1 | 16.6 |
| COc1ccc(CNC(=O)Cn2c(=O)oc3ccccc32)cc1OC | -1.21 |
| COc1ccccc1OCc1csc(NC(=O)c2ccco2)n1 | -8.35 |
| Cc1nc(=O)c(-c2ccccc2)c(C)n1CCCO | 10.8 |
| O=C1NC2(CCCCC2)C(=O)N1Cc1cc(=O)n2ccsc2n1 | 6.06 |
| O=C(O)c1ccc(CSc2ncnc3c2cnn3Cc2ccccc2)cc1 | 13.9 |
| COc1ccc(S(=O)(=O)N2CCOC2CNC(=O)C(=O)NCCCN(C)C)cc1C (centres unmarked) | -2.58 |
| COc1ccc(CCNS(=O)(=O)c2ccc(OC)c(OC)c2)cc1OC | 6.59 |
| Cc1cc(C)n2nc(CNS(=O)(=O)c3ccc(F)c(C)c3)nc2n1 | 2.42 |
| CCN1CCN(Cc2ccc(NC(=O)c3cc(NC(=O)c4ccc5n[nH]nc5c4)cc(OC)c3)cc2C(F)(F)F)CC1 | 23.4 |
| C=CCNC(=O)C1CC1(c1ccc(C)cc1)c1ccc(C)cc1 (centres unmarked) | 8.38 |
| CC(C)C(Nc1ccc(C(F)(F)F)cc1[N+](=O)[O-])C(=O)O (centres unmarked) | -3.09 |
| Cc1ccc(C2=NC3(CCCC3)NC2=S)cc1 | 8.96 |

| Compound | hERG current change (%, negative = inhibition) at 1uM [%] |
| --- | --- |
| CSCCC(NC(=O)c1cc([N+](=O)[O-])cc([N+](=O)[O-])c1)c1nc2ccccc2[nH]1 (centres unmarked) | -13.6 |
| O=C(N/C(=C/c1ccco1)C(=O)N1CCCCCC1)c1cccs1 | -10 |
| CN(C)CCNC(C(=O)Nc1cc(Cl)cc(Cl)c1)c1ccccc1 (centres unmarked) | -0.213 |
| O=C1CCCN1CCCNC(=S)Nc1ccc(Br)cc1Cl | 9.49 |
| O=C(CN1CCN(S(=O)(=O)c2cccc(F)c2)CC1)Nc1ccnn1C1CCCC1 | 11.2 |
| CC(Oc1ccccc1)C(=O)Nc1ccccc1F (centres unmarked) | -6.58 |
| O=C(NCc1ccccn1)c1cc(S(=O)(=O)N2CCCCC2)ccc1Cl | 5.62 |
| Cc1ccc(/C=N/N2C(=O)C3C(C2=O)C2C=CC3C23CC3)o1 (centres unmarked) | 3.63 |
| Cc1ccc(C2=NOC3(CC(=O)N(c4ccc(C)cc4)C3=O)C2)cc1 (centres unmarked) | 13 |
| CCCOC(=O)Nc1cc(OC)c(Cl)cc1OC | 8.47 |
| c1ccc(C(c2nnnn2C2CCCC2)N2CCN(c3nc4ccccc4s3)CC2)cc1 (centres unmarked) | 9.63 |
| O=C(CN1CCN(S(=O)(=O)c2ccc(Br)cc2)CC1)N/N=C/c1ccncc1 | -51.8 |
| CN(C)C(=O)CN(C)S(=O)(=O)c1ccc(Cl)cc1 | -1.64 |
| COc1ccc(NC(=O)N2CCN(S(C)(=O)=O)CC2)c(OC)c1 | 10.5 |
| CCC(=O)NC(=S)Nc1ccc(NC(=O)c2ccc(Br)o2)cc1 | 14.9 |
| CCN(CC)S(=O)(=O)c1ccc2oc(C(=O)NCc3ccc(C)cc3)c(C)c2c1 | 0.647 |
| Cc1cccnc1NC(=O)CSc1nnc(Cc2ccccc2)o1 | 8.52 |
| COc1ccccc1C(=O)C1CCCN(Cc2ccc3c(c2)OCCO3)C1 (centres unmarked) | 9.1 |

Source: article PMC4336329 (PLoS ONE, 2015)
